Screen size: about 48,000 compounds; about 1,200 (2.5%) were called active. Inconclusive results (about 2%) are left out.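 Rule for the calls: active = activation of at least 60% and not above a set upper limit (about 1 call in 100 departs from these limits); inconclusive = activation of 40% to 60%, or above that upper limit; inactive = activation under 40%.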 This is one part of the list.
target: Probable G-protein coupled receptor 32 (Homo sapiens) (UniProt O75388); assay: qHTS for Agonists of Human Resolvin D1 Receptor DRV1; conditions: CHO-K1 GPR32 beta-arrestin PathHunter luminescence, 90 min; at 76.9 µM; stronger effect = higher value; zero percent set by DMSO-only wells; note: 0% is about no effect
Procedure, shortened: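 CHO-K1 cells stably expressing ProLink-tagged GPR32 and Enzyme Activator-tagged beta-arrestin were seeded at 2,500 cells/well overnight, exposed to compounds for 90 min at 37 °C, then read by beta-Gal complementation chemiluminescence after 1 h detection reagent.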

Chain of UniProt O75388 (O75388 whole entry, looked up): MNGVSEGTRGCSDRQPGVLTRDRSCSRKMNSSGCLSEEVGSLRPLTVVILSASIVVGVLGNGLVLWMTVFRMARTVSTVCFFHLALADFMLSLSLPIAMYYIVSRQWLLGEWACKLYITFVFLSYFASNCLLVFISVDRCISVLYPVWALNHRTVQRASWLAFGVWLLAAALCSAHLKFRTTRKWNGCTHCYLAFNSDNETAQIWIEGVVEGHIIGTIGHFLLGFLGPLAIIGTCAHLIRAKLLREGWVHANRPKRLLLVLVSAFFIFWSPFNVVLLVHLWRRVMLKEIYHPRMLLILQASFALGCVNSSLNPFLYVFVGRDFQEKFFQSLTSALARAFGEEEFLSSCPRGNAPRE

Compound	activation
COc1ccc(C(=O)NCCc2sc(-c3cccc(F)c3)nc2C)cc1	active: 67.2%
CC[C@H](NC(=O)c1c(C)c(-c2ccccc2)nc2ccccc12)c1ccccc1	inactive: -11.6%
C[C@@H](N)C1CCC(C(=O)Nc2ccncc2)CC1 (some centres undefined)	inactive: -6.61%
NCC(O)(CS(=O)(=O)O)c1ccc(Cl)cc1 (centres undefined)	inactive: -0.755%
Cc1nc2ccn(Cc3cccnc3)c(=O)c2cc1C(=O)Nc1ccc(OC(F)(F)F)cc1	inactive: -7.47%
Cc1ccccc1NS(=O)(=O)c1ccc2[nH]cc(C(=O)N3CCCC3)c(=O)c2c1	inactive: -7.87%
Cc1cc(Br)ccc1NC(=O)CCS(=O)(=O)c1cccc2nonc12	inactive: 17.8%
COc1ccc(Cl)cc1NS(=O)(=O)c1cc(-c2cc(C)no2)ccc1C	inactive: -18.3%
O=C(NCC(c1cccs1)S(=O)(=O)c1cccs1)c1ccccc1 (centres undefined)	inactive: -6.6%
CC(NC(=O)Cn1ncc2c3ccccc3n(Cc3ccc(F)cc3)c2c1=O)c1ccccc1 (centres undefined)	inactive: -6.02%
CCOC(=O)c1ccc(NC(=O)C2Cc3ccccc3CN2S(=O)(=O)c2ccc(Cl)cc2)cc1 (centres undefined)	inactive: -16.9%
CCOC(=O)c1c(NC(=O)c2noc3c2CC(C(C)(C)C)CC3)sc2c1CCCC2 (centres undefined)	inactive: -10.1%
Cc1ccc(C)c(N2CCN(C(=O)CN3C(=O)COc4ccc(S(=O)(=O)N5CCCCCC5)cc43)CC2)c1	inactive: -8.07%
CC(=O)c1sc2c(c1C)c(=O)n(-c1ccc(Cl)cc1)c(=O)n2Cc1ccc(Cl)cc1	inactive: -12.3%
Cc1cc(C)c(Cn2c(C)c(CNCCCc3ccccc3)c(C(=O)O)c2C)c(C)c1	inactive: 36.5%
Cc1cccc(NC(=O)c2cnn(-c3ccccc3)c2-n2cccc2)c1C	inactive: 5.28%
CC(=O)N1CCC(N(Cc2ccco2)C(=O)Nc2cccc(C)c2)CC1	inactive: 0.741%
CCOC(=O)c1cc2c(=O)n3ccccc3nc2n(CC2CCCO2)c1=NC(=O)c1cccc(C(F)(F)F)c1 (centres undefined)	inactive: -6.74%
COc1ccc(-c2cc(C(=O)Nc3c(C(=O)c4ccc(Cl)cc4)oc4ccccc34)no2)cc1	inactive: -6.54%
CCC1CN(C(=O)N2CCC(C(=O)NCc3ccc(C)o3)CC2)c2cc(C)ccc2O1 (centres undefined)	inactive: -12.1%
CCOC(=O)N1CCN(S(=O)(=O)N2CCCC(C(=O)NCc3cccc(OC)c3)C2)CC1 (centres undefined)	inactive: -1.32%
Cc1nc2c(C(=O)NCc3ccccc3Cl)cnn2c(C)c1Cc1c(F)cccc1Cl	inactive: -12.3%
O=C(NC1CC(=O)N(c2ccc(F)cc2)C1)c1cc2ccccc2o1 (centres undefined)	inactive: -11.5%
CC(=O)N1CCCc2cc(S(=O)(=O)N3CCC(C(=O)NCCC(C)C)CC3)ccc21	inactive: 10.3%
CN1CCN(C(c2ccccc2)c2sc3nc(-c4ccco4)nn3c2O)CC1 (centres undefined)	inactive: -6.5%
COc1ccccc1NC(=O)n1ncc2c(C)cccc21	inactive: 2.52%
CCOC(=O)c1nnc2c(-c3ccc(OC)cc3)c(C)nn2c1N	inactive: -39%

Compound	activation
Cc1ccc(C)c(NC(=O)CSc2cn(CC(=O)N3CCCC3)c3ccccc23)c1	inactive: -16.9%
CCCN1C(=O)C(NC(=O)c2ccccc2OC)(C(F)(F)F)C(C(=O)OC)=C1C (centres undefined)	inactive: 9.31%
Cc1ccc2nc(NC(=O)c3cc(=O)c4cc(C)c(C)cc4o3)sc2c1	inactive: 0.373%
CCOc1ccccc1C1C(C(=O)Nc2ccccc2OC)=C(C)Nc2nc3ccccc3n21 (centres undefined)	inactive: -0.882%
CCOc1ccc(NC(=O)Cc2csc(COc3cccc(C)c3)n2)cc1	inactive: -6.82%
CO/S(=N\S(=O)(=O)c1ccc(Cl)cc1)c1ccc([N+](=O)[O-])cc1 (centres undefined)	inactive: 5.83%
CSc1ccc(CNC(=O)CCn2ccc3cc(S(=O)(=O)N4CCCC4)ccc32)cc1	inactive: -5.38%
COc1ccccc1CNC(=O)c1ccc(C)c(-n2cnc3cccnc32)c1	inactive: 1.45%
Cc1cc(C)c(NC(=O)CN(CC(=O)O)CC(=O)O)c(C)c1Br	inactive: -59.6%
O=C(NCCc1csc(-c2cccnc2)n1)c1cccc(C(F)(F)F)c1	active: 68.4%
CCOc1ccc(NC(=O)Cn2c(C)ccc(C#N)c2=O)cc1	inactive: -8.32%
CCc1nnc2c3ccccc3nc(N3CCN(c4ccc(C)cc4C)CC3)n12	inactive: 12.4%
CCOC(=O)c1ccccc1NC(=O)CN(c1ccccc1OC)S(=O)(=O)c1ccc(C)cc1	inactive: -5.91%
COc1ccc(CN2C(=O)C(NC(=O)c3ccc(C)cc3)(C(F)(F)F)N=C2c2ccccc2)cc1 (centres undefined)	inactive: -16%
Cc1cc(Br)ccc1NC(=O)c1cc2c(s1)-c1ccccc1SC2	inactive: -9.57%
O=C(CCCn1c(=O)c2cccn2c2cccnc21)NCCc1ccc(Cl)cc1	inactive: -10%
COc1ccc(-c2nn(C)c3sc(C(=O)N4CCN(c5cccc(C)c5C)CC4)cc23)cc1OC	inactive: -10.7%
COc1ccc(NS(=O)(=O)c2nnc(NC(=O)c3ccccc3F)s2)cc1	inactive: 13.5%
CCOC(=O)N1CCc2c(sc3c2c(=O)n(-c2ccc(Cl)cc2)c(=O)n3CC(=O)c2ccc(F)cc2)C1	inactive: -13%
COc1ccccc1NC(=O)CSc1nc2c(oc3ccccc32)c(=O)n1-c1ccc(C)cc1	inactive: 7.73%
COc1cc(/C=C/c2nc(C#N)c(NC3CCCCC3)o2)cc(OC)c1OC	inactive: -22.3%
Cc1ccc(CNc2nc3c(S(=O)(=O)c4ccccc4)nnn3c3ccsc23)cc1	inactive: 1.96%
O=C(/C=C/c1cn(CC(O)CN2CCCCCC2)c2ccccc12)c1ccccc1 (centres undefined)	inactive: 3.99%
O=C(Nc1ccccc1C(=O)OCc1cc(=O)n2nc(C3CC3)sc2n1)c1cccc(Cl)c1	inactive: -13%
COc1ccc(C2c3c(-c4ccccc4O)n[nH]c3C(=O)N2Cc2ccco2)cc1 (centres undefined)	inactive: -6.99%
CCOC(=O)C1=C(CN2CCN(c3ccccc3)CC2)NC(=O)NC1c1ccc(C)cc1 (centres undefined)	inactive: 4.62%
COc1cccc(C(=O)NC(=O)Nc2ccc(-c3cc(C(F)(F)F)nn3-c3ccccc3)cc2)c1	inactive: -5.54%
